The record followed here is the supplement of paper PMC9446081.

Among all 39,000 compounds or so, about 220 (0.56%) showed activity. Some of the results follow.
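Further: static incubation at 37 °C against the wild-type strain, values averaged over two biological replicates.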

This test has as its system Escherichia coli K-12 BW25113. Kind of test: relative growth (OD600 normalised to plate interquartile mean) (fraction); higher = less growth inhibition, active = 0.2 or less. As to conditions: 50 µM; LB; incubation time: overnight (16-24 h).
On to `COCC#Cc1cnc2c(c1)C(=O)N([C@H](C)CO)C[C@H](C)[C@H](CN(C)C(=O)CCN1CCCCC1)O2`, for which the relative growth was inactive: 1.
For `C[C@@H]1CCCCO[C@@H](CN(C)Cc2ccc(C(=O)O)cc2)[C@@H](C)CN([C@@H](C)CO)C(=O)c2cc(NC(=O)C3CCCCC3)ccc2O1`, the relative growth was inactive: 1.
With `COc1ccc(S(=O)(=O)Nc2ccc3c(c2)C(=O)N([C@H](C)CO)C[C@H](C)[C@@H](CN(C)S(C)(=O)=O)OCCCC[C@@H](C)O3)cc1`, the relative growth is inactive: 0.975.
As for `COCC#Cc1ccc2c(c1)O[C@@H](CN(C)S(=O)(=O)c1cccc(F)c1)[C@H](C)CN([C@@H](C)CO)S2(=O)=O`, the relative growth is inactive: 1.01.
Take `NNC(=O)[C@@H](O)c1ccccc1`: the relative growth is inactive: 0.981.
`O=C(O)c1c[nH]ccc1=O`: the relative growth was inactive: 1.02.
In the case of `C[C@@H]1CN([C@@H](C)CO)C(=O)c2cccc(NC(=O)Nc3ccc4c(c3)OCO4)c2O[C@@H]1CN(C)Cc1ccc(Oc2ccccc2)cc1`, the relative growth is inactive: 1.
To `C[C@@H]1CCCCO[C@H](CN(C)C(=O)Nc2ccc(C(F)(F)F)cc2)[C@@H](C)CN([C@@H](C)CO)C(=O)c2cc(NC(=O)C3CCCCC3)ccc2O1` belongs inactive: 1.01; to `C=C(CO)C(=O)O[C@@H]1[C@H]2C(=C)C(=O)O[C@@H]2[C@H]2O[C@]2(C)CC/C=C(/C(=O)OC)[C@H]1OC(C)=O`, inactive: 1.01; to `O=c1[nH]cc(/N=C/c2ccncc2)c(=O)[nH]1`, inactive: 0.98.
To `O=C(C[C@@H]1C=C[C@@H](NC(=O)C2CC2)[C@@H](CO)O1)NCCCN1CCOCC1` belongs inactive: 0.973.
To `C[C@H](CO)N1C[C@H](C)[C@@H](CN(C)Cc2ccc(C(F)(F)F)cc2)Oc2ccc(NC(=O)Nc3ccc(C(F)(F)F)cc3)cc2C1=O` belongs inactive: 1.01; to `COc1ccc2c3c([nH]c2c1)[C@H](CO)N(C[C@]13CCN(CC1)C(=O)c1ccccc1F)C(=O)Nc1ccc(cc1)F`, inactive: 1.02; to `Cc1ccc(S(=O)(=O)N(C)C[C@H]2Oc3ccc(NC(=O)CCCN(C)C)cc3C(=O)N([C@H](C)CO)C[C@H]2C)cc1`, inactive: 0.989.
`C[C@H]1CN([C@@H](C)CO)S(=O)(=O)c2ccc(C#CCN(C)C)cc2O[C@@H]1CN(C)C(=O)CN(C)C`: the relative growth is inactive: 0.986.
Take `Nc1cccc(O)c1`: the relative growth was inactive: 0.972.
Consider `O=C(C[C@H]1CC[C@@H](NS(=O)(=O)c2ccccc2F)[C@@H](CO)O1)NCCCN1CCOCC1`, for which the relative growth was inactive: 0.989.
In the case of `C[C@@H]1CN([C@H](C)CO)C(=O)c2cccc(NC(=O)c3nc4ccccc4s3)c2O[C@@H]1CN(C)Cc1ccc(Oc2ccccc2)cc1`, the relative growth is inactive: 0.988.
To `C[C@H](CO)N1C[C@H](C)[C@@H](CN(C)Cc2ccc(C(F)(F)F)cc2)Oc2c(NS(=O)(=O)c3ccc(Cl)cc3)cccc2C1=O` belongs inactive: 1; to `O=C(C[C@@H]1CC[C@H](NC(=O)CN2CCOCC2)[C@H](CO)O1)NCc1cccc(F)c1`, inactive: 0.986.
Regarding `O=C(C[C@H]1CC[C@@H]2[C@H](COC[C@@H](O)CN2C(=O)Nc2ccc(F)cc2)O1)NCCCN1CCOCC1`, the relative growth was inactive: 0.972.
In the case of `COc1ccc(CN(C)C[C@@H]2Oc3ccc(NC(=O)CCCCCC(=O)Nc4ccccc4N)cc3CC(=O)N([C@H](C)CO)C[C@@H]2C)cc1`, the relative growth is inactive: 1.
Take `NS(=O)(=O)c1cc2c(cc1Cl)NCNS2(=O)=O`: the relative growth was inactive: 1.03.
`COc1ccc(S(=O)(=O)N(C)C[C@@H]2OCCCC[C@@H](C)Oc3ccc(NS(=O)(=O)c4ccc(Cl)cc4)cc3C(=O)N([C@H](C)CO)C[C@@H]2C)cc1`: the relative growth is inactive: 1.04.
To `COCC(=O)Nc1ccc2c(c1)C(=O)N(C)C[C@@H](OC)[C@@H](C)CN(C(=O)Cc1ccccn1)[C@H](C)CO2` belongs inactive: 1; to `C=CCC[C@@H](Cc1ccc(F)cc1)C(=O)OC[C@@H](Cc1c[nH]c2ccccc12)NC(=O)[C@@H](CC=C)CC(=O)N[C@@H](CO)Cc1ccccc1`, inactive: 1.01; to `CC(C)NC(=O)N(C)C[C@@H]1OCCCC[C@H](C)Oc2ccc(NC(=O)Nc3ccc(F)cc3)cc2C(=O)N([C@@H](C)CO)C[C@@H]1C`, inactive: 1.02.
On to `C/C=C/c1cnc2c(c1)C(=O)N([C@@H](C)CO)C[C@@H](C)[C@H](CN(C)S(=O)(=O)c1ccc(OC)cc1)O2`, for which the relative growth is inactive: 1.01.
`COc1ccc(NC(=O)N2C[C@@H](O)COC[C@@H]3O[C@@H](CC(=O)NCc4ccccc4OC)CC[C@H]32)cc1`: the relative growth was inactive: 0.991.
Consider `COc1ccc2c3c([nH]c2c1)[C@@H](CO)N(Cc1cc(ccc1F)F)C[C@]13CCN(CC1)C(=O)CN(C)C`, for which the relative growth is inactive: 0.976.
On to `Cc1noc(C)c1S(=O)(=O)N(C)C[C@@H]1Oc2ccc(NC(=O)Nc3ccc4c(c3)OCO4)cc2CC(=O)N([C@H](C)CO)C[C@H]1C`, for which the relative growth is inactive: 0.993.
Turning to `C[C@H]1CN([C@@H](C)CO)C(=O)c2cc(N(C)C)ccc2O[C@H]1CN(C)S(=O)(=O)c1ccc(Cl)cc1`, the relative growth was inactive: 0.995.
Take `COc1ccc(CN(C)C[C@@H]2Oc3ccc(NS(C)(=O)=O)cc3C(=O)N([C@H](C)CO)C[C@H]2C)cc1`: the relative growth is inactive: 1.04.
As for `O=C(NCC(=O)N1CCOCC1)c1ccccc1`, the relative growth was inactive: 0.937.
Take `Nn1c(CO)nc2ccccc21`: the relative growth is inactive: 1.02.
On to `C[C@@H]1CN([C@H](C)CO)C(=O)c2cc(NC(=O)Nc3ccc(C(F)(F)F)cc3)ccc2O[C@@H]1CN(C)Cc1ccc(C(F)(F)F)cc1`, for which the relative growth was inactive: 1.03.
With `O=C(C[C@@H]1C=C[C@@H](NC(=O)c2ccc3c(c2)OCO3)[C@@H](CO)O1)NCc1ccc(Oc2ccccc2)cc1`, the relative growth is inactive: 1.01.
Consider `O=C(C[C@@H]1C[C@@H]2c3cc(NC(=O)Cc4ccncc4)ccc3O[C@@H]2[C@H](CO)O1)NCc1cccc(F)c1`, for which the relative growth was inactive: 0.993.
Consider `C[C@@H]1CN([C@@H](C)CO)C(=O)Cc2cc(NC(=O)Nc3ccc(C(F)(F)F)cc3)ccc2O[C@@H]1CN(C)C(=O)Nc1ccc(C(F)(F)F)cc1`, for which the relative growth was inactive: 1.02.
Regarding `CC[C@@]1(C)CC(=O)NC1=O`, the relative growth was inactive: 0.991.
With `COc1cccc(C#Cc2ccc3c(c2)O[C@@H](CN(C)C(=O)c2ccccn2)[C@@H](C)CN([C@H](C)CO)S3(=O)=O)c1`, the relative growth was inactive: 0.974.
